The list shows a part of the results. Sequences were assembled here from the parent chain. Values near 0.05 are background.
B1: TEV protease; numbered along this chain (parent)
chain: MGESLFKGPRDYNPISSSICHLTNESDGHTTSLYGIGFGPFIITNKHLFRRNNGTLVVQSLHGVFKVKDTTTLQQHLVDGRDMIIIRMPKDFPPFPQKLKFREPQREERICLVTTNFQTKSMSSMVSDTSCTFPSGDGIFWKHWIQTKDGQCGSPLVSTRDGFIVGIHSASNFTNTNNYFTSVPKNFMELLTNQEAQQWVSGWRLNADSVLWGGHKVFMVKPEEPFQPVKEATQL

Variants of: B1
Experiment: raw area under fraction-flipped curve 0-4 h after induction (AUC4h, not background-subtracted), DNA-recorder readout of cleavage of the substrate (dimensionless); higher = more cleavage of the substrate by the protease variant
Conditions: temperature: 34 °C; time window: 0-4 h after rhamnose induction
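Note: Bxb1 expression induced with 0.2% (w/v) L-rhamnose at OD600 near 0.5, cultures sampled hourly, flipped fraction per protease–substrate barcode pair counted by paired-end Illumina sequencing.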

Row | Variant | area with substrate EALYFQS | area with substrate ECLYFQS | area with substrate EDLYFQS | area with substrate EELYFQS | area with substrate EGLYFQS | area with substrate EHLYFQS | area with substrate EILYFQS | area with substrate EKLYFQS | area with substrate ELLYFQS | area with substrate EMLYFQS | area with substrate EPLYFQS | area with substrate ERLYFQS | area with substrate ESLYFQS | area with substrate EVLYFQS | area with substrate EWLYFQS | area with substrate EQLYFQS | area with substrate EFLYFQS | area with substrate ETLYFQS | area with substrate EYLYFQS
1 | I164D | 0.0508 | 0.0571 | 0.0688 | 0.0565 | 0.0646 | 0.065 | 0.0512 | 0.0607 | 0.0715 | 0.065 | 0.0676 | 0.0584 | 0.05 | 0.0632 | 0.0524 | – | – | – | –
2 | T147Q | 0.0641 | 0.0654 | 0.0763 | 0.0615 | – | 0.0699 | – | 0.06 | – | – | 0.083 | 0.0659 | 0.0663 | 0.0744 | – | 0.0413 | – | – | –
3 | G150V | 0.0759 | 0.0694 | 0.0769 | 0.0616 | 0.0585 | – | 0.0582 | 0.0663 | 0.0583 | 0.0592 | 0.0645 | 0.0546 | 0.0545 | 0.0571 | 0.06 | 0.0558 | 0.0571 | 0.0559 | 0.0503
4 | G150H | 0.0593 | 0.0678 | 0.0637 | 0.0699 | 0.0556 | 0.0641 | 0.055 | 0.0559 | 0.05 | 0.0628 | – | 0.0586 | 0.0578 | 0.054 | 0.0712 | 0.0598 | – | 0.0638 | 0.0544
5 | G166A | 0.0605 | 0.0494 | 0.0503 | 0.0938 | 0.0643 | – | 0.0421 | 0.0467 | 0.0331 | 0.0537 | 0.049 | 0.0545 | 0.0533 | 0.0469 | 0.0499 | 0.046 | – | – | –
6 | G166M | 0.0479 | 0.0456 | 0.0875 | 0.0224 | 0.0555 | 0.0344 | 0.0412 | 0.0332 | 0.0527 | – | 0.0313 | 0.0545 | 0.051 | 0.0435 | 0.0342 | – | – | – | 0.0585
7 | G166D | 0.0487 | 0.0437 | 0.0492 | 0.0497 | 0.0544 | – | 0.0438 | 0.0526 | 0.0492 | 0.0692 | – | 0.0494 | 0.0603 | 0.044 | – | 0.0646 | – | 0.0479 | 0.0461
8 | S171F | 0.0337 | 0.058 | 0.0574 | 0.0477 | 0.0538 | 0.0466 | 0.045 | 0.0476 | – | 0.0461 | 0.0366 | – | 0.0638 | – | 0.0475 | 0.0638 | – | – | 0.0604
9 | S171M | 0.0633 | 0.0614 | 0.0544 | 0.0585 | 0.0744 | – | 0.0537 | 0.0624 | – | – | – | 0.0639 | 0.0655 | 0.0831 | 0.0647 | 0.0616 | – | 0.0476 | 0.0601
10 | S171L | 0.0604 | 0.0543 | 0.0558 | 0.0475 | – | 0.0575 | 0.0202 | 0.0578 | 0.0586 | 0.06 | – | – | 0.0576 | 0.0519 | 0.0658 | 0.0371 | – | 0.0661 | 0.0632
11 | L156E | 0.0628 | 0.0446 | 0.0596 | 0.0408 | 0.0601 | 0.0489 | 0.048 | 0.0257 | 0.0816 | 0.0564 | 0.0656 | 0.0556 | 0.058 | 0.0513 | – | 0.095 | – | – | 0.051
12 | L156Q | 0.0608 | 0.057 | 0.0883 | – | 0.0545 | 0.0558 | 0.0535 | 0.0522 | 0.0566 | 0.0706 | 0.0616 | 0.0517 | 0.047 | 0.0604 | 0.0534 | – | – | – | 0.0498
